Measured values published in the supplement of paper PMC8728848.
This is one part of the list.

Tests used:
Assay in all cases: glycan array binding signal (z-score within array); higher = stronger binding
Conditions in all cases: glycan notation: IUPAC condensed, linker removed
[1] = molecular target: Gal(b1-4)Glc6S
Summary of the method: (§1)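 Columns mapping to the same glycan were averaged after glycan names were converted to IUPAC-condensed notation. The data come from 3228 arrays in the Consortium for Functional Glycomics database, limited to those with an available protein sequence. Binding is reported as a within-array Z-score averaged across arrays of one protein sequence and across linkers.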

[2] = molecular target: Gal(b1-4)GlcNAc
Summary of the method: as §1

[3] = molecular target: Gal(b1-4)GlcNAc(a1-6)Gal(b1-4)GlcNAc
Summary of the method: as §1

[4] = molecular target: Gal(b1-4)GlcNAc(b1-2)Man
Summary of the method: as §1

[5] = molecular target: Gal(b1-4)GlcNAc(b1-2)Man(a1-3)Man(b1-4)GlcNAc(b1-4)GlcNAc
Summary of the method: as §1

[6] = molecular target: Gal(b1-4)GlcNAc(b1-2)Man(a1-3)[Gal(b1-4)GlcNAc(b1-2)Man(a1-6)]Man(b1-4)GlcNAc(b1-4)GlcNAc
Summary of the method: as §1

[7] = molecular target: Gal(b1-4)GlcNAc(b1-2)Man(a1-3)[Gal(b1-4)GlcNAc(b1-2)Man(a1-6)]Man(b1-4)GlcNAc(b1-4)[Fuc(a1-6)]GlcNAc
Summary of the method: as §1

[8] = molecular target: Gal(b1-4)GlcNAc(b1-2)Man(a1-3)[Gal(b1-4)GlcNAc(b1-2)Man(a1-6)][Gal(b1-4)GlcNAc(b1-4)]Man(b1-4)GlcNAc(b1-4)[Fuc(a1-6)]GlcNAc
Summary of the method: as §1

[9] = molecular target: Gal(b1-4)GlcNAc(b1-2)Man(a1-3)[Gal(b1-4)GlcNAc(b1-2)Man(a1-6)][GlcNAc(b1-4)]Man(b1-4)GlcNAc(b1-4)[Fuc(a1-6)]GlcNAc
Summary of the method: as §1

[10] = molecular target: Gal(b1-4)GlcNAc(b1-2)Man(a1-3)[GlcNAc(b1-2)Man(a1-6)]Man(b1-4)GlcNAc(b1-4)GlcNAc
Summary of the method: as §1

[11] = molecular target: Gal(b1-4)GlcNAc(b1-2)Man(a1-3)[GlcNAc(b1-4)][Gal(b1-4)GlcNAc(b1-2)Man(a1-6)]Man(b1-4)GlcNAc(b1-4)GlcNAc
Summary of the method: as §1

[12] = molecular target: Gal(b1-4)GlcNAc(b1-2)Man(a1-3)[Man(a1-6)]Man(b1-4)GlcNAc(b1-4)GlcNAc
Summary of the method: as §1

[13] = molecular target: Gal(b1-4)GlcNAc(b1-2)Man(a1-6)Man(b1-4)GlcNAc(b1-4)GlcNAc
Summary of the method: as §1

[14] = molecular target: Gal(b1-4)GlcNAc(b1-2)Man(a1-6)[GlcNAc(b1-2)Man(a1-3)]Man(b1-4)GlcNAc(b1-4)GlcNAc
Summary of the method: as §1

[15] = molecular target: Gal(b1-4)GlcNAc(b1-2)Man(a1-6)[Man(a1-3)]Man(b1-4)GlcNAc(b1-4)GlcNAc
Summary of the method: as §1

[16] = molecular target: Gal(b1-4)GlcNAc(b1-2)[Gal(b1-4)GlcNAc(b1-4)]Man(a1-3)[Gal(b1-4)GlcNAc(b1-2)Man(a1-6)]Man(b1-4)GlcNAc(b1-4)GlcNAc
Summary of the method: as §1

[17] = molecular target: Gal(b1-4)GlcNAc(b1-2)[Gal(b1-4)GlcNAc(b1-4)]Man(a1-3)[Gal(b1-4)GlcNAc(b1-2)[Gal(b1-4)GlcNAc(b1-6)]Man(a1-6)]Man(b1-4)GlcNAc(b1-4)GlcNAc
Summary of the method: as §1

[18] = molecular target: Gal(b1-4)GlcNAc(b1-2)[Gal(b1-4)GlcNAc(b1-4)]Man(a1-3)[GlcNAc(b1-4)][Gal(b1-4)GlcNAc(b1-2)Man(a1-6)]Man(b1-4)GlcNAc(b1-4)GlcNAc
Summary of the method: as §1

[19] = molecular target: Gal(b1-4)GlcNAc(b1-2)[Gal(b1-4)GlcNAc(b1-4)]Man(a1-3)[GlcNAc(b1-4)][Gal(b1-4)GlcNAc(b1-2)[Gal(b1-4)GlcNAc(b1-6)]Man(a1-6)]Man(b1-4)GlcNAc(b1-4)GlcNAc
Summary of the method: as §1

[20] = molecular target: Gal(b1-4)GlcNAc(b1-2)[Gal(b1-4)GlcNAc(b1-6)]Man(a1-6)[Gal(b1-4)GlcNAc(b1-2)Man(a1-3)]Man(b1-4)GlcNAc(b1-4)GlcNAc
Summary of the method: as §1

[21] = molecular target: Gal(b1-4)GlcNAc(b1-2)[Gal(b1-4)GlcNAc(b1-6)]Man(a1-6)[Gal(b1-4)GlcNAc(b1-2)Man(a1-3)]Man(b1-4)GlcNAc(b1-4)[Fuc(a1-6)]GlcNAc
Summary of the method: as §1

[22] = molecular target: Gal(b1-4)GlcNAc(b1-2)[Gal(b1-4)GlcNAc(b1-6)]Man(a1-6)[GlcNAc(b1-4)][Gal(b1-4)GlcNAc(b1-2)Man(a1-3)]Man(b1-4)GlcNAc(b1-4)GlcNAc
Summary of the method: as §1

[23] = molecular target: Gal(b1-4)GlcNAc(b1-2)[Gal(b1-4)GlcNAc(b1-6)]Man(a1-6)[GlcNAc(b1-4)][Gal(b1-4)GlcNAc(b1-2)[Gal(b1-4)GlcNAc(b1-4)]Man(a1-3)]Man(b1-4)GlcNAc(b1-4)[Fuc(a1-6)]GlcNAc
Summary of the method: as §1

[24] = molecular target: Gal(b1-4)GlcNAc(b1-3)Gal(b1-3)GalNAc
Summary of the method: as §1

[25] = molecular target: Gal(b1-4)GlcNAc(b1-3)Gal(b1-3)GlcNAc
Summary of the method: as §1

[26] = molecular target: Gal(b1-4)GlcNAc(b1-3)Gal(b1-4)Glc
Summary of the method: as §1

[27] = molecular target: Gal(b1-4)GlcNAc(b1-3)Gal(b1-4)GlcNAc
Summary of the method: as §1

[28] = molecular target: Gal(b1-4)GlcNAc(b1-3)Gal(b1-4)GlcNAc(b1-2)Man(a1-3)[Gal(b1-4)GlcNAc(b1-3)Gal(b1-4)GlcNAc(b1-2)Man(a1-6)]Man(b1-4)GlcNAc(b1-4)GlcNAc
Summary of the method: as §1

[29] = molecular target: Gal(b1-4)GlcNAc(b1-3)Gal(b1-4)GlcNAc(b1-2)Man(a1-3)[Gal(b1-4)GlcNAc(b1-3)Gal(b1-4)GlcNAc(b1-2)Man(a1-6)]Man(b1-4)GlcNAc(b1-4)[Fuc(a1-6)]GlcNAc
Summary of the method: as §1

[30] = molecular target: Gal(b1-4)GlcNAc(b1-3)Gal(b1-4)GlcNAc(b1-2)[Gal(b1-4)GlcNAc(b1-3)Gal(b1-4)GlcNAc(b1-6)]Man(a1-6)[Gal(b1-4)GlcNAc(b1-3)Gal(b1-4)GlcNAc(b1-2)Man(a1-3)]Man(b1-4)GlcNAc(b1-4)GlcNAc
Summary of the method: as §1

B1: Blon2468mut (Bifidobacterium longum) (protein)
chain: MTFIKQMMPRYVASMTAGIVAAAMAATCAFAPVANADAVSPTQETIQSTGRHFMVYYRAWRDVTMKGVNTDLPDDNWISMYDIPYGVDVVNIFSYVPSGQEEQAQPFYDKLKSDYAPYLHSRGIKLVRGIDYTGVAVNGFRTFMKEQNKTESEATEADYDAYAKQVIDKYMISVGLDGLDIDMQAHPNDADVKISDNVIRALSKHIGPKSAKPDTTMFLYDTNGSYLNPFKNVAECFDYVAYQQYGSSSDRTARAAADYQPYIGNEFVPGLTFPEEGDMNNRWYDATEPYEESHFYQVASYVREHNLGGMFVYALDRDGRNYDEDLRRIVPSNLLWTKTAIAESEGMALDTAKTAANHYLDRMSLRQVIDDNAASADKARDMVGKAANLYETNKAVLGGDYGEGFSNTYDPTLEAGLLGIDISVLQQQIDKSSEIIGADTAESDAKTALRMARDAAIDGLTGKIYTADQVSAWSQALKAALDATVPVPTPDSTDQNGNRDKVTNHKVQGQPKQLSATGISTDIIVAVGVTLAIAGVALSLSRKLS
[1]
  glycan array binding signal (z-score): -0.063
[2]
  glycan array binding signal (z-score): -0.072
[3]
  glycan array binding signal (z-score): -0.082
[4]
  glycan array binding signal (z-score): -0.087
[5]
  glycan array binding signal (z-score): -0.059
[6]
  glycan array binding signal (z-score): -0.039
[7]
  glycan array binding signal (z-score): -0.086
[8]
  glycan array binding signal (z-score): -0.094
[9]
  glycan array binding signal (z-score): -0.065
[10]
  glycan array binding signal (z-score): -0.066
[11]
  glycan array binding signal (z-score): -0.088
[12]
  glycan array binding signal (z-score): -0.082
[13]
  glycan array binding signal (z-score): -0.077
[14]
  glycan array binding signal (z-score): -0.055
[15]
  glycan array binding signal (z-score): -0.07
[16]
  glycan array binding signal (z-score): -0.097
[17]
  glycan array binding signal (z-score): -0.077
[18]
  glycan array binding signal (z-score): -0.087
[19]
  glycan array binding signal (z-score): -0.096
[20]
  glycan array binding signal (z-score): -0.083
[21]
  glycan array binding signal (z-score): -0.061
[22]
  glycan array binding signal (z-score): -0.066
[23]
  glycan array binding signal (z-score): -0.088
[24]
  glycan array binding signal (z-score): -0.058
[25]
  glycan array binding signal (z-score): -0.1
[26]
  glycan array binding signal (z-score): -0.061
[27]
  glycan array binding signal (z-score): -0.048
[28]
  glycan array binding signal (z-score): -0.04
[29]
  glycan array binding signal (z-score): -0.036
[30]
  glycan array binding signal (z-score): -0.069
